Data as given in the supplement of paper PMC6531468.
The other results are listed elsewhere or left out. Read counts after selection give these values, which scatter widely. Scores sum up all selected molecules that hold the word; the word was not tested alone.

Experiments:
Experiment in all cases: 6-mer SELEX enrichment z-score vs GST control; IMP3 is the RNA-binding protein IGF2BP3; higher = more enriched by binding
IMP3 KH1-4 = details: construct: KH1-4 (164-579); SELEX round: R4
Protocol: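 SELEX-seq with GST-tagged IMP3 KH1-4 (Pro164-Lys579) and an N40 RNA pool, round 4. 6-mer z-score of sequence-tag enrichment normalised to the corresponding GST SELEX round; RNA k-mers written as DNA (T for U).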

IMP3 RRM1-2 = details: construct: RRM1-2 (1-163); SELEX round: R2
Chain of IMP3 RRM1-2 (chain, as listed by the source): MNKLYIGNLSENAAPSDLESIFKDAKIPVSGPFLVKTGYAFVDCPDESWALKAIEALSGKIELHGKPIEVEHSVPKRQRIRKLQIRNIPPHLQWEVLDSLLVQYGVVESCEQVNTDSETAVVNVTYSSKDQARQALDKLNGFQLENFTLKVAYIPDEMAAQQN
Protocol: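 SELEX-seq with GST-tagged IMP3 RRM1-2 (Met1-Asn163) and an N40 RNA pool, round 2. 6-mer enrichment z-score normalised to GST SELEX. RNA written as DNA (T = U).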

IMP3 KH1-2 = details: construct: KH1-2 (164-376); SELEX round: R4
Chain of IMP3 KH1-2 (chain, as listed by the source): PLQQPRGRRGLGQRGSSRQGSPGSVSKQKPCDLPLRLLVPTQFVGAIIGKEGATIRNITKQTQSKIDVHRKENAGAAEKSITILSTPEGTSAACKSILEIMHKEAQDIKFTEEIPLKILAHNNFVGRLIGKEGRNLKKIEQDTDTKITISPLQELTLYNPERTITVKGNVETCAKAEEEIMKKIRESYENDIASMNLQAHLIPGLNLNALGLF
Protocol: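 SELEX-seq with GST-tagged IMP3 KH1-2 (Pro164-Phe376) and an N40 RNA pool, round 4 (stringent 300/600 mM KCl washes). 6-mer z-score of sequence-tag enrichment normalised to the corresponding GST SELEX round; RNA k-mers written as DNA (T for U).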

IMP3 KH3-4 = details: construct: KH3-4 (377-579); SELEX round: R4
Chain of IMP3 KH3-4 (chain, as listed by the source): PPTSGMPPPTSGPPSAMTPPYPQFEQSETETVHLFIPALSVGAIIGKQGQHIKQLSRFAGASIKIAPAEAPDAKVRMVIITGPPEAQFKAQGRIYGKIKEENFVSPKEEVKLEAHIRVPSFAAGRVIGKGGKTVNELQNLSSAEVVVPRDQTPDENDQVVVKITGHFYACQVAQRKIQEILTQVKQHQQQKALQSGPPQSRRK
Protocol: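 SELEX-seq with GST-tagged IMP3 KH3-4 (Pro377-Lys579) and an N40 RNA pool, round 4. 6-mer z-score of sequence-tag enrichment normalised to the corresponding GST SELEX round; RNA k-mers written as DNA (T for U).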

Chain of IMP3 KH1-4 (chain, as listed by the source): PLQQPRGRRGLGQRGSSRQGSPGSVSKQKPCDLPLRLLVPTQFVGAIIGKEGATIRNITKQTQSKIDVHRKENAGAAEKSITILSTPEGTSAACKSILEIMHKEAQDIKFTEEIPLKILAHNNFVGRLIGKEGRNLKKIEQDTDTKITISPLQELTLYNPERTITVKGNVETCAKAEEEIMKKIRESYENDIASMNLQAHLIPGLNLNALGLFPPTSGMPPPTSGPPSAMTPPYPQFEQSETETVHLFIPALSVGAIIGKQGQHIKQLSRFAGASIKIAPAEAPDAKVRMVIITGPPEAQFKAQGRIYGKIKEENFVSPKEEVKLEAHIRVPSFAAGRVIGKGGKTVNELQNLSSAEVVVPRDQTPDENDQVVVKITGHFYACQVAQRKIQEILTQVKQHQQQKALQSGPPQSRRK

Row | Sequence | 6-mer SELEX enrichment z-score (IMP3 KH1-4) | 6-mer SELEX enrichment z-score (IMP3 RRM1-2) | 6-mer SELEX enrichment z-score (IMP3 KH1-2) | 6-mer SELEX enrichment z-score (IMP3 KH3-4)
1 | CGAGTC | -1.07 | -0.341 | -0.887 | -0.973
2 | CTATCG | -0.18 | 0.124 | -0.205 | -0.229
3 | TAATTA | 1.17 | -0.222 | 1.1 | 2.16
4 | CGAAAC | -2.27 | -1.44 | -2 | -2.26
5 | TCGCGA | -0.624 | -0.136 | -0.54 | -0.521
6 | ACGAGA | -1.37 | -1.36 | -1.3 | -1.11
7 | GGAGCT | -0.324 | -0.048 | -0.203 | -0.086
8 | CTAGGT | -0.107 | 0.275 | -0.072 | 0.04
9 | ACCGCG | -1.15 | -0.575 | -0.984 | -1.42
10 | TTCTGT | 0.732 | 0.416 | 0.664 | 0.549
11 | ACTTGG | -0.635 | 0.27 | -0.565 | -0.572
12 | CACTCG | -1.18 | 0.5 | -0.999 | -1.19
13 | CAGATG | 0.481 | -0.155 | 0.423 | 0.529
14 | GGTATC | -0.527 | 0.455 | -0.412 | -0.348
15 | AGGGCA | 1.03 | 0.271 | 0.947 | 1.23
16 | AAACAC | 0.497 | 2.1 | 1.18 | 0.537
17 | CCAGGG | -0.326 | -0.134 | – | -0.332
18 | CAAAAC | -2.08 | -0.182 | – | -2.11
19 | CTAGGG | -0.174 | 0.116 | -0.063 | 0.01
20 | GCCATG | 0.315 | -0.074 | – | 0.065
21 | CCTAGT | -0.361 | 0.002 | -0.38 | -0.398
22 | TGTTAT | 0.435 | 0.284 | 0.261 | 0.469
23 | CACAGG | 0.888 | 1.82 | 0.788 | 0.442
24 | CTCTTC | 0.303 | 0.536 | 0.416 | 0.085
25 | ACCGTC | -0.516 | -0.287 | -0.536 | -0.954
26 | ACCAGG | -0.219 | 0.463 | -0.25 | -0.424
27 | TGGGGC | 0.556 | 0.362 | – | 0.813
28 | TCCATT | 0.981 | 0.65 | 0.921 | 0.72
29 | CGACTT | -0.604 | -0.218 | -0.581 | -0.572
30 | GGTTCG | 0.003 | 0.266 | – | 0.147
